{"source": "the supplement of paper PMC11417369", "note": "± gives the standard deviation of the averaged measurements. The list shows a part of the results."}
{"tested_on": "PfAP2-EXP AP2 domain (GST-tagged)", "test": "gcPBM binding intensity (ln(normalized median fluorescence intensity)); higher = stronger DNA binding", "how_it_was_run": "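For binding intensity, the highest Masliner-normalised natural-log median intensity across replicate spots of either probe orientation was taken. Protein bound to the array was stained with Alexa488 anti-GST antibody and scanned at 488 nm. The protein, GST-tagged P. falciparum DNA-binding domains from E. coli at about 25 μg on average, had been applied for 1 h to an Agilent 4 × 180k array of primer-extended double-stranded 36-bp intergenic genomic probes and negative controls.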"}
{"sequence": "GTATATATATATATATATATAATAGTAACTTTTACT [CACACA_negctrl_site608]", "gcPBM binding intensity (ln)": "8.66 ± 0.099"}
{"sequence": "TTATTCTACATATATGCATGTGTATGATCTGTTTAT [TGCATGCA_site782]", "gcPBM binding intensity (ln)": "8.73 ± 0.23"}
{"sequence": "CATATATACCTATATACACACATATAGATTTATATA [CACACA_site6451]", "gcPBM binding intensity (ln)": "8.31 ± 0.35"}
{"sequence": "TGATATTATCTCTTCACACACTCACATACAGACAAA [CACACA_site1246]", "gcPBM binding intensity (ln)": "8.64 ± 0.44"}
{"sequence": "ATATAAATGATATGTACACACATTTATATATATAAA [CACACA_site3475]", "gcPBM binding intensity (ln)": "8.49 ± 0.33"}
{"sequence": "AAAATAAAAAAAATGTAAAAGGTTAAAGTGAAATAT [CACACA_negctrl_site350]", "gcPBM binding intensity (ln)": "8.96 ± 0.39"}
{"sequence": "TATTTGATAAAAAAAAGTACTAGAATTTCGCTTTTG [XGTACX_site7754]", "gcPBM binding intensity (ln)": "8.4 ± 0.4"}
{"sequence": "ATTTATTTATATACAAGTACATAAAAAATTAACTTA [XGTACX_site6170]", "gcPBM binding intensity (ln)": "8.065 ± 0.007"}
{"sequence": "TAAAAATTAAAATGTTGTACAATGATAAAATATTAT [XGTACX_site7874]", "gcPBM binding intensity (ln)": "8.71 ± 0.26"}
{"sequence": "AAATTATAAAATAACTGTACCAATCCTTTTTTTTTA [XGTACX_site2229]", "gcPBM binding intensity (ln)": "8.16 ± 0.42"}
{"sequence": "CTCAACATATACGTAACACACATATAAATATAAATA [CACACA_site7749]", "gcPBM binding intensity (ln)": "8.56 ± 0.56"}
{"sequence": "TAAATTGAAATATATTGTACATTATCAACTAAGGGA [XGTACX_site1635]", "gcPBM binding intensity (ln)": "8.49 ± 0.42"}
{"sequence": "ATATGTACATATCTCATGCACTTAACAAAAAAAAAG [GTGCAC_site9898]", "gcPBM binding intensity (ln)": "8.71 ± 0.29"}
{"sequence": "TAAAGAGTCATGTGGTGTACCTGCTTCACCACATAT [XGTACX_site1288]", "gcPBM binding intensity (ln)": "8.29 ± 0.4"}
{"sequence": "TTATTTTTAATATCGGTGCAACAAAAAGGAAAAGAT [GTGCAC_site9482]", "gcPBM binding intensity (ln)": "9.22 ± 0.39"}
{"sequence": "TATATATTCATAAAGTGTACATGTTTATATATATAT [XGTACX_site7585]", "gcPBM binding intensity (ln)": "9.72 ± 0.47"}
{"sequence": "TATGTATAGATATATACACACTTCTGTGATACGAAA [CACACA_site7003]", "gcPBM binding intensity (ln)": "8.35 ± 0.45"}
{"sequence": "CCATAGATATTTTATACACACATATAATATATTAAT [CACACA_site373]", "gcPBM binding intensity (ln)": "8.54 ± 0.62"}
{"sequence": "GATGATTCAATTTATGCACACTAAAAATTAATTATA [CACACA_site4308]", "gcPBM binding intensity (ln)": "8.46 ± 0.28"}
{"sequence": "AAATAATATATTCCTTGTACTTATTTCAATGAATTC [XGTACX_site7719]", "gcPBM binding intensity (ln)": "8.48 ± 0.45"}
{"sequence": "ATAATCTGACAAATGTGTACACATATATATATATAT [XGTACX_site2379]", "gcPBM binding intensity (ln)": "10.3 ± 0.34"}
{"sequence": "ACCAAAAGGGGATGTAGTACAATATGATTAGAAGAA [XGTACX_site3773]", "gcPBM binding intensity (ln)": "9.1 ± 0.52"}
{"sequence": "AAAATACCCGGACACACACACATATATATATATATT [CACACA_site6137]", "gcPBM binding intensity (ln)": "8.83 ± 0.31"}
{"sequence": "TAACTTCAAACAAAATATGGTAAAAGTGGTTGAAAA [CACACA_negctrl_site42]", "gcPBM binding intensity (ln)": "8.68 ± 0.49"}
